PubChem BioAssay (NCATS)
The inconclusive results got no clear call from the source; some entries with a clear call stand among them for comparison. A potency beside an inconclusive call is a rough fit, not a confirmed value. Calls of active or inactive are those of the source. Calls come from the whole dose curve; as a rule, active = well fitted inhibition curve with a large enough effect; inconclusive = small, poorly fitted or top-dose-only effect; inactive = no such curve, though single readings can be large or run the other way.

target: Rap guanine nucleotide exchange factor 3 (Homo sapiens) (UniProt O95398); experiment: Confirmatory qHTS for antagonist of cAMP-regulated guanine nucleotide exchange factor 3 (EPAC1) (AID 1645880); conditions: EPAC1 Rap1B-BODIPY-GDP exchange, fluorescence; series mostly up to 115 µM; note: nearly all actives have a fitted effect of over 55% in size
Outline: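 Nucleotide exchange uses 100 nM EPAC1, 250 nM RAP1B-BODIPY-GDP and 50 uM GDP, with compounds in a concentration-titration series. After 5 min at room temperature, fluorescence (480 nm ex/540 nm em) is read every 5 min for 30 min. Data are normalized to control ATA and DMSO.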
Potency is the fitted concentration of half-maximal effect; tags give direction and shape of the fitted curve.

Sequence of UniProt O95398 (O95398 whole entry, looked up): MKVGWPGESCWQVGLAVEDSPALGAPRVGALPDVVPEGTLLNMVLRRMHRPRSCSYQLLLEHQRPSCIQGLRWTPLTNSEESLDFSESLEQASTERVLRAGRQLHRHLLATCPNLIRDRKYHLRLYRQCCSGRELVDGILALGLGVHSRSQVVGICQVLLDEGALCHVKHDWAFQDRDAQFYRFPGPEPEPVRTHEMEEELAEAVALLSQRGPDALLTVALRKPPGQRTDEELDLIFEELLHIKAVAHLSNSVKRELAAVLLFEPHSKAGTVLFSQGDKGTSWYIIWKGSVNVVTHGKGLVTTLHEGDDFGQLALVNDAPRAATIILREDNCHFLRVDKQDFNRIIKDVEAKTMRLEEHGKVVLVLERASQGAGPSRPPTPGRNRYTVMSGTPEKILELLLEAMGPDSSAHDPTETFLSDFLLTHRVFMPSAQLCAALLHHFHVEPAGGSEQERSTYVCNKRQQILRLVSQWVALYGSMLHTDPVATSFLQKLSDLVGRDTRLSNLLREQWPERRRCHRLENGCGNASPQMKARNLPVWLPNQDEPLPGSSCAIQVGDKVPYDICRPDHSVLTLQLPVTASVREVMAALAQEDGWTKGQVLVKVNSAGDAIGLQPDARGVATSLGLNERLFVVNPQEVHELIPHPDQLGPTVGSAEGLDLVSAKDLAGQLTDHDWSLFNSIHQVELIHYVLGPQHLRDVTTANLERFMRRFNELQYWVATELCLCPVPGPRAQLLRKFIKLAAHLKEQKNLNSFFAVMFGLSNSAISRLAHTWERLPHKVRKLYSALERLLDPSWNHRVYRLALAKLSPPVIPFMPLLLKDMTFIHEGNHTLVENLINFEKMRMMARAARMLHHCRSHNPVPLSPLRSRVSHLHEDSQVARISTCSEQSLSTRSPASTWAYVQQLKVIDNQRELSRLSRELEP

Potency, inconclusive:
COc1ccccc1-n1c(C)c(C(=O)O)c2cc(OC)c3ccccc3c21 60.1 µM [inhibitor, partial curve]
N#Cc1c(SCC(=O)Nc2cccc(C(F)(F)F)c2)sc2c(O)cc(=O)[nH]c12 22.4 µM [inhibitor, partial curve]
O=C1C=CC(c2ccccc2)(c2ccccc2)CC1 11.2 µM [inhibitor, partial curve, poor fit]
CC(=O)N(CCC(c1ccco1)C(C)C)Cc1ccc(Cl)cc1 (centres undefined) 60.1 µM [inhibitor, partial curve]

Potency, inactive:
Cc1cn2c(=O)cc(COc3ccc(C(C)(C)C)cc3)nc2s1
COc1ccccc1-c1oc2ccccc2c1-c1ccc2c(c1)OCO2
COc1cccc(-n2ccn(CC(=O)NCc3ccc(C)cc3)c(=O)c2=O)c1
COc1ccccc1Cn1c(=O)oc2ccc(C)cc21

Potency, active:
CCN1/C(=C/c2ccc3cc(C)ccc3[n+]2CC)Sc2ccccc21 75.7 µM
